According to PubChem BioAssay AID2546 (National Center for Advancing Translational Sciences (NCATS), 2010):
Among all 310,000 compounds or so, about 11,000 (3.5%) were called active. Inconclusive means that the source gave no clear call. Such entries were picked first, then a sample of the others. The call rests on the fitted dose curve; in most records, active means well fitted inhibition curve with a large enough effect; inconclusive means small, poorly fitted or top-dose-only effect, or effect the other way; inactive means flat fitted curve, though single readings scatter. No potency is given beside an inconclusive call; the fits are too rough.
On the % scale 0 is the no-effect control and ±100 the full control effect; potency means the concentration at half of the fitted maximal effect; tags describe the fitted curve by direction and shape.

Experiment: VP16 counterscreen qHTS for inhibitors of ROR gamma transcriptional activity;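 further: Gal4-VP16 expression switched on by copper sulfate through the metallothionein promoter; nearly all actives have a fitted effect of over 50% in size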
Conditions: Drosophila S2 Gal4-VP16 UAS-luciferase, luminescence, 20 h; activity, negative = inhibition: at 53.6 µM (top of the series)
In the case of `O=C(NCC12CC3CC(CC(C3)C1)C2)c1nn2c(c1Cl)NC(c1ccco1)CC2C(F)(F)F` (stereo not given), the Potency is reported as active: 14.1 µM.
For `COc1cc2c(cc1OC)[C@H](C)N(CC1C(=O)O[C@@H]3C[C@@]4(C)CCC[C@H](C)[C@@]45OC5[C@H]13)CC2` (stereo not given in full), the Potency was inconclusive [inhibitor, single point].
For `N#Cc1nc(Cc2ccccc2)oc1N1CCC(C(N)=O)CC1`, the Potency was “inactive”.
With `O=C(NC1CCCCC1)C(c1cccnc1)N(C(=O)c1csnn1)c1ccccc1F` (stereo not given) the Potency was inconclusive [activator, single point].
For `CC1=NCCN1CCNC(=O)Nc1ccc(C(C)(C)C)cc1`, the Potency was “inactive”.
In the case of `O=C(c1ccccc1)C1CCN(C(=O)C2CCC(=O)N(Cc3ccccc3F)C2)CC1` (stereo not given), the Potency is reported as “inactive”.
With `CC(=O)c1ccc(N2CCN(c3ccccc3O)CC2)c([N+](=O)[O-])c1` the Potency was inconclusive [inhibitor, single point].
In the case of `CCOC(=O)Cc1csc(NC(=O)c2ccc(Br)cc2)n1`, the Potency is reported as inconclusive [inhibitor, single point].
For `Cc1ccnc2nc(C(=O)Nc3ccc4c(c3)OCO4)nn12`, the Potency was inconclusive [inhibitor, single point].
In the case of `Cc1onc(-c2ccccc2Cl)c1C(=O)OCC(=O)Nc1cccc(S(=O)(=O)N2CCOCC2)c1`, the Potency is reported as inconclusive [inhibitor, single point].
With `CCOc1ccc(Nc2nc(Cc3nnc(SCC(=O)O)o3)cs2)cc1` the Potency was “inactive”.
For `Cc1ccc(-n2cc(CNCC3CC(=O)N(C4CC4)C3)c(-c3cccc(C)c3)n2)cc1` (stereo not given), the Potency was inconclusive [inhibitor, single point].
In the case of `O=[N+]([O-])c1ccccc1OCC(O)CNC1CCCC1` (stereo not given), the Potency is reported as “inactive”.
With `C/C(=N\Nc1nc2ccccc2[nH]1)c1ccc(N2CCOCC2)cc1` the Potency was inconclusive [inhibitor, single point].
In the case of `Cc1csc(NC(=O)CCc2c(C)nc3cc(-c4cccc(F)c4)nn3c2C)n1`, the Potency is reported as inconclusive [inhibitor, single point].
For `CCOc1cc(/C=C2\C(=O)ON=C2C)ccc1OCc1ccccc1`, the Potency was inconclusive [inhibitor, single point].
With `Cc1nn(-c2ccc(Br)cc2)c(=O)c2ccccc12` the Potency was inconclusive [activator, single point].
In the case of `Cc1[nH]c2ccccc2c1C(=O)CSc1nc2ccccc2c(=O)n1CCCN1CCOCC1`, the Potency is reported as inconclusive [inhibitor, single point].
With `CCN(CC)c1nc(-c2ccccn2)nc(-c2ccccc2)c1C#N` the Potency was active: 5.01 µM.
For `CCN(CC)CCN(C(=O)CCOc1ccccc1)c1nc2c(F)cc(F)cc2s1`, the Potency was “inactive”.
With `C=CCOC(=O)C1=C[C@H](C2CC2)[C@@H](CCCO)[C@H](OCC)O1` the Potency was “inactive”.
With `O=C1Nc2ccccc2/C1=N\c1sc2c(c1C(=O)Nc1ccccc1)CCCC2` the Potency was “inactive”.
With `CC(=O)Nc1ccc2nc(NC(=O)c3ccc([N+](=O)[O-])o3)sc2c1` the Potency was active: 10 µM.
With `COC(=O)[C@@]1(Cc2ccc(OC)cc2)[C@@H]2C(=CC(=O)[C@H]2CC(=O)C(=O)N2CCCC2)CN1C(=O)c1ccccc1` the Potency was active: 3.98 µM.
For `O=C(N/N=C/c1cccs1)c1ccc(NC(=O)c2ccccc2Cl)cc1`, the Potency was inconclusive [inhibitor, partial curve, poor fit].
In the case of `O=C(c1cc2c(s1)-c1ccccc1S(=O)(=O)C2)N1CCN(Cc2ccccc2)CC1`, the Potency is reported as inconclusive [inhibitor, single point].
In the case of `CCn1ccnc1CN(C)Cc1cn(-c2cccc(C)c2)nc1-c1cccc(F)c1`, the Potency is reported as active: 15.8 µM.
In the case of `CC1CC(C)CN(C(=S)SCc2nc(N)nc(Nc3ccccc3)n2)C1` (stereo not given), the Potency is reported as inconclusive [inhibitor, single point].
In the case of `O=C(Nc1nnc(S(=O)(=O)N2CCCCCC2)s1)c1ccccc1`, the Potency is reported as inconclusive [inhibitor, full curve].
In the case of `Cc1cccc(OCC(=O)N2CCN(C(=O)CCC3CCCC3)CC2)c1`, the Potency is reported as inconclusive [inhibitor, single point].
In the case of `c1ccc(-c2cn3c4c(sc3n2)CCCC4)cc1`, the Potency is reported as active: 6.31 µM.
With `CS(=O)(=O)Nc1ccccc1C(=O)Nc1cccc(Cl)c1` the Potency was inconclusive [inhibitor, single point].
For `COc1ccccc1N1CCN(Cc2ccc(O)c3ncccc23)CC1`, the Potency was inconclusive [inhibitor, full curve, poor fit].
For `CC1CN(C(=S)Nc2cccc(Cl)c2Cl)CC(C)O1` (stereo not given), the Potency was inconclusive [inhibitor, single point].
With `CNC(=S)SCCOc1ccc(C)cc1` the Potency was inconclusive [inhibitor, single point].
With `Cc1nc(-c2ccc([N+](=O)[O-])cc2)sc1C(=O)O` the Potency was inconclusive [inhibitor, partial curve].
With `O=C(O)CN1C(=O)/C(=C\c2cc(Br)ccc2OCc2ccc(F)cc2)SC1=S` the Potency was “inactive”.
In the case of `CCOC(=O)N1CCC(NC(=O)CCC(=O)N2CC(C)Oc3ccc(C)cc32)CC1` (stereo not given), the Potency is reported as “inactive”.
In the case of `CC1(C)CC(=O)C(CS(=O)(=O)c2ccccc2)=C(Cl)C1`, the Potency is reported as inconclusive [inhibitor, single point].
For `C=CCOc1ccccc1CN1CCC(CO)(CCOc2ccccc2)CC1`, the Potency was “inactive”.
For `CC(C)OC(=O)[C@@H]1CC[C@H](C)[C@@H](CCCC=O)O1`, the Potency was “inactive”.
With `Nc1nnc(SCC(=O)c2ccco2)s1` the Potency was “inactive”.
For `Cc1ccc(NC(=S)NCC2CCN(C(C)c3ccccc3)C2)cc1C` (stereo not given), the Potency was inconclusive [inhibitor, single point].
With `CCN(CC1COc2ccccc2O1)C(=S)Nc1ccccc1` (stereo not given) the Potency was inconclusive [inhibitor, single point].
With `Cc1ccc(Cn2cccc2/C=N/NC(=S)Nc2ccc(C)cc2)cc1` the Potency was active: 3.98 µM.
In the case of `CC(=O)c1cccc(N=c2scc(-c3ccc(S(=O)(=O)N4CCOCC4)cc3)n2CCO)c1`, the Potency is reported as active: 2 µM.
For `CCCC(=O)Nc1ccc(NC(=O)c2ccccn2)cn1`, the Potency was inconclusive [inhibitor, single point].
With `O=C(/C=C/c1ccco1)NC(=S)Nc1cc(-c2nc3ccccc3s2)ccc1Cl` the Potency was active: 1 µM.
For `COc1cccc(/C=N/NC(=O)c2c(-c3ccccc3)noc2C)c1O`, the Potency was active: 2 µM.
In the case of `CC(=O)N(C)c1ccc(N=NC2C(=O)N(C(N)=S)N=C2C)cc1` (stereo not given), the Potency is reported as active: 2 µM.
In the case of `Cc1ccccc1NC(=S)N(Cc1cccnc1)Cc1ccco1`, the Potency is reported as inconclusive [activator, single point].
In the case of `Cc1nn(Cc2c(F)c(F)c(F)c(F)c2F)c(C)c1NC(=O)c1ccc(COc2ccc(Cl)cc2Cl)o1`, the Potency is reported as “inactive”.
For `CCOC(=O)c1ccccc1NC(=O)COC(=O)CCNS(=O)(=O)c1ccccc1`, the Potency was “inactive”.
With `Cc1ccn2cc(C(=O)Nc3ccc4c(c3)OCCO4)nc2c1` the Potency was active: 4.47 µM.
For `N#Cc1ccccc1NC(=O)CSc1nnc(-c2ccccc2O)n1-c1ccccc1`, the Potency was inconclusive [inhibitor, single point].
With `Cc1cc(C)nc(NC(=O)c2cc(-c3ccc(C)s3)nc3ccccc23)c1` the Potency was inconclusive [inhibitor, single point].
With `S=C(NCc1ccccc1)N/N=C/c1cccs1` the Potency was active: 0.794 µM.
With `CS(=O)(=O)Nc1ccc(C(=O)Nc2ccccc2-c2ccccc2)cc1` the Potency was “inactive”.
With `CCCCCCCCc1nc(=S)[nH][nH]1` the Potency was inconclusive [inhibitor, partial curve].
For `NS(=O)(=O)c1cc(-c2nn[nH]n2)c(NCc2cccs2)cc1Cl`, the Potency was “inactive”.
With `CC/C(=N\NC(=O)CSCc1ccccc1Cl)c1ccc2c(c1)OCCO2` the Potency was inconclusive [activator, single point].
With `CCCCn1c(SCc2ncc(-c3ccccc3)o2)nc2cc(S(N)(=O)=O)ccc21` the Potency was inconclusive [inhibitor, single point].
In the case of `C(=N\Nc1nncc2ccccc12)/c1ccccn1`, the Potency is reported as active: 3.55 µM.
For `COc1ccc(-c2noc(CCC(=O)NCCCN3CCC(Cc4ccccc4)CC3)n2)cc1`, the Potency was inconclusive [inhibitor, single point].
In the case of `c1cc(-c2nnc3sc(C4CCCCC4)nn23)ccn1`, the Potency is reported as “inactive”.
For `COc1ccc(OC)c(C(O)c2nc3ccccc3n2C(C)C)c1` (stereo not given), the Potency was “inactive”.
For `Cc1c(C(=O)N2CC(C)OC(C)C2)sc2nc(-c3ccc(F)cc3)cn12` (stereo not given), the Potency was inconclusive [inhibitor, single point].
For `CCCCNc1ncnc2sc3c(c12)CCN(CCC)C3`, the Potency was “inactive”.
In the case of `O=C(Nc1nc2ccc([N+](=O)[O-])cc2s1)c1ccc(S(=O)(=O)N2CCCc3ccccc32)cc1`, the Potency is reported as active: 3.98 µM.
For `O=C(CCNC(=O)c1ccccc1Cl)Nc1nc(-c2ccc(F)cc2)cs1`, the Potency was “inactive”.
In the case of `O=C(N/N=C/c1ccc(O)c2ncccc12)c1cccc(Br)c1`, the Potency is reported as inconclusive [inhibitor, single point].
In the case of `CN(NC(=O)Nc1ccccc1)c1cnn(C)c(=O)c1Cl`, the Potency is reported as “inactive”.
For `COc1ccccc1-c1ccc2ncnc(NCc3cnc(C)cn3)c2c1`, the Potency was inconclusive [inhibitor, partial curve].
For `CC(C)(C)c1ccc(/C=C/C(=O)N2CCOCC2)cc1`, the Potency was inconclusive [inhibitor, partial curve].
For `COC(=O)c1sc(NC(=S)NC(=O)c2ccc(F)cc2)nc1C`, the activity, negative = inhibition was inactive: -4.92% [at 10 µM].
